Results as given in PubChem BioAssay AID686979 (National Center for Advancing Translational Sciences (NCATS), 2013).
About 50,000 (12%) of roughly 420,000 compounds were called active. The inconclusive results got no clear call from the source; some entries with a clear call stand among them for comparison. The call rests on the fitted dose curve; in most records, active means well fitted inhibition curve with a large enough effect; inconclusive means small, poorly fitted or top-dose-only effect; inactive means flat fitted curve, though single readings scatter. No potency is given beside an inconclusive call; the fits are too rough.

test: qHTS for Inhibitors of human tyrosyl-DNA phosphodiesterase 1 (TDP1): qHTS in cells in presence of CPT; conditions: chicken DT40 Tdp1-/-;hTDP1 cells + 20 nM CPT, ATP luminescence, 48 h; activity change, negative = growth inhibition: at 46.2 µM (top of the series); further: nearly all actives have a fitted effect of over 55% in size
Method in brief: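 Chicken DT40 Tdp1-/- cells stably complemented with human TDP1 were seeded at 400 cells/well in medium containing 20 nM camptothecin, exposed to pin-transferred compounds, and grown at 37 °C for at least 48 hr. Viability was read as ATP luminescence.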
On the % scale 0 is the no-effect control and ±100 the full control effect; potency means the concentration at half of the fitted maximal effect; tags describe the fitted curve by direction and shape.

Compound	activity change, negative = growth inhibition	Potency
CCCCn1c(N)c(N(CC(C)C)C(=O)CSc2ccccc2C)c(=O)[nH]c1=O	inactive: -0.698%	–
Cc1cc(C(=O)CSc2nnc(-c3ccccc3)o2)c(C)n1CC1COc2ccccc2O1 (stereo not drawn)	–	inconclusive [inhibitor, single point]
COCc1cc(C)nc(SCC(=O)Nc2ccc3c(c2)OCCO3)c1C#N	–	inconclusive [inhibitor, single point]
O=C(N/N=C/c1ccccc1O)c1cccc(C(F)(F)F)c1	–	active: 5.17 µM
CCCCn1c(-c2ccsc2)nc2c1c(=O)[nH]c(=O)n2CCC	–	inconclusive [inhibitor, single point]
COc1ccc(-n2ncc3c2CC(C)(C)CC3NC(=O)CCn2nc(C)cc2C)cc1 (stereo not drawn)	–	inconclusive [inhibitor, single point]
COc1ccc(CCC(=O)NC2CC(=O)N(c3ccc(C)c(C)c3)C2)cc1 (stereo not drawn)	inactive: -2.46%	–
OCCN1CCN(c2cc(-c3ccccc3)c3ccccc3n2)CC1	inconclusive: -34.9% [inhibitor]	–
CCN(C(=O)CCc1nc(-c2ccc(C)cc2)no1)c1cccc(Cl)c1	–	active: 20.6 µM
CC(=O)Nc1cc(NC(C)=O)cc(C(=O)OCC(=O)c2ccc3c(c2)OCO3)c1	inactive: 4.33%	–
CCCn1c(=S)[nH]c2cc(C(=O)N3CCN(C(=O)OCC)CC3)ccc2c1=O	inactive: -23.9%	–
Cc1ccccc1OCC(=O)Nc1ccc(C(=O)OCc2cc(=O)n3ccsc3n2)cc1	–	inconclusive [inhibitor, single point]
Cc1ccccc1NC(=O)c1nc(S(C)(=O)=O)ncc1N(Cc1ccco1)Cc1sccc1C	–	active: 16.4 µM
O=C(NNS(=O)(=O)c1ccccc1[N+](=O)[O-])c1cccnc1	–	inconclusive [inhibitor, single point]
NC(c1csc(Nc2ccc(C(=O)c3ccccc3)cc2)n1)C1CCCCC1 (stereo not drawn)	–	inconclusive [inhibitor, single point]
O=C1CCSc2ccc(Cl)cc2N1Cc1ccc(Cl)cc1	–	inconclusive [inhibitor, single point]
CCN(CC)C1=C(Cl)C(=O)C(Cl)C12OCCO2 (stereo not drawn)	inactive: 2.92%	–
COCCNC(=S)N/N=C(\C)c1ccc(Cl)s1	–	inconclusive [inhibitor, single point]
Cc1cc(C(=O)CSc2nc3ccccc3[nH]2)c(C)n1Cc1ccco1	–	active: 8.2 µM
S=c1[nH]nc(-c2cccc(Cl)c2)n1CCN1CCCCC1	inactive: 3.32%	–
CN1C[C@@H]2C(c3ccc(C(F)(F)F)cc3)C3(c4cccnc4)CC2(C3)[C@H]1c1ccccc1 (stereo partly drawn)	–	inconclusive [inhibitor, single point]
COc1ccc(CN(C)C(=O)c2cc(-c3ccccc3)nc3ccc(C)cc23)c(OC)c1OC	–	active: 18.4 µM
Cc1nc(N/N=C/c2ccccn2)sc1C	–	active: 1.3 µM
CCCCCCCCCCCC(=O)NC(C(=O)OCC)C(O)c1cccc([N+](=O)[O-])c1 (stereo not drawn)	–	active: 16.4 µM
Cc1cc(C(=O)OCC(=O)Nc2cccc(S(N)(=O)=O)c2)c2ccccc2n1	inactive: -10.3%	–

Compound	activity change, negative = growth inhibition	Potency
COc1cc(OC)nc(/N=C/N(C)C)n1	inactive: -0.587%	–
CCOC(=O)c1[nH]c2ccc(OCC)cc2c1NC(=O)CN1CCC2(CC1)OCCO2	–	inconclusive [inhibitor, single point]
CCCN1/C(=C(\C#N)C2=NS(=O)(=O)c3ccccc32)N(C)c2ccccc21	inactive: 12.1%	–
CCCCOC(=O)c1cc(=O)[nH]c2ccc(C)cc12	inactive: -5.63%	–
COC(=O)c1cc2sccc2n1CC(=O)Nc1ccc(C)cc1C	inactive: -26.3%	–
O=C(N[C@@H](Cc1ccccc1)C(=O)N1CCN(S(=O)(=O)c2ccccc2F)CC1)c1ccco1	–	inconclusive [inhibitor, single point]
CCC(=O)N1CCC2(CC1)Oc1ccc(Cl)cc1C(=O)C21CC(c2ccccc2)=NO1 (stereo not drawn)	–	inconclusive [inhibitor, single point]
COc1cc2c(cc1OC)C(COc1ccc3c(C)cc(=O)oc3c1)N(C(=O)Cc1ccccc1)CC2 (stereo not drawn)	–	inconclusive [inhibitor, single point]
COc1ccccc1CNc1nc(NCc2ccc3occc3c2)c2sccc2n1	–	active: 20.6 µM
COC(=O)c1ccc(CS(=O)(=O)c2ccc(C)cc2)o1	–	inconclusive [inhibitor, single point]
CC1CCN(c2oc(Cc3cccc4ccccc34)nc2C#N)CC1	–	inconclusive [inhibitor, single point]
CC(C)C[C@H](N)c1nnc(S(=O)(=O)Cc2ccc(F)cc2)o1	–	active: 1.3 µM
O=C(COC(=O)/C=C/c1ccc(S(=O)(=O)N2CCCCCC2)cc1)NCc1ccccc1Cl	–	inconclusive [inhibitor, single point]
CCOC(=O)C1=C(C)NC(=O)NC1c1c(C)nn(-c2ccccc2)c1Cl (stereo not drawn)	–	inconclusive [inhibitor, single point]
CCc1cc(C(=O)N2CCCC(C(=O)c3cccc(OC(C)C)c3)C2)n(C)n1 (stereo not drawn)	–	active: 16.4 µM
Cc1ccc(S(=O)(=O)c2cn(Cc3ccccc3)c3cc(N4CCCC4)c(F)cc3c2=O)cc1	–	active: 5.8 µM
Cc1ccc(C)c2nc(Cl)c(C3NC(=O)c4ccccc4N3)cc12 (stereo not drawn)	–	inconclusive [inhibitor, single point]
Cc1[nH]c2ccccc2c1CCNC(=O)c1c(N)no[n+]1[O-]	inactive: 16.5%	–
N#Cc1c(-c2ccco2)cc(-c2ccc(F)cc2)nc1N	–	inconclusive [inhibitor, single point]
CCOC(=O)C1=NNC(C(=O)c2ccc(Cl)cc2)C1c1ccc(OC)cc1 (stereo not drawn)	–	inconclusive [inhibitor, single point]
COc1cccc(CNC(=O)c2ccc3nc(-c4ccccc4)c(-c4ccccc4)nc3c2)c1OC	–	active: 23.1 µM
CCC1CCCCN1C(=O)CSc1nnc(-c2c[nH]c3ccccc23)o1 (stereo not drawn)	–	active: 20.6 µM
Cc1cc(C)c(Cn2c3ccccc3c3cnn(CC(=O)NCCC4=CCCCC4)c(=O)c32)c(C)c1	–	active: 20.6 µM
COc1ccc2c(-c3cnc(N4CCOCC4)nc3)c(-c3ccc(S(C)(=O)=O)cc3)sc2c1	–	active: 14.6 µM
COc1cc(OC)cc(C(=O)NC(=S)Nc2nnn(C)n2)c1	inactive: -3.99%	–

Compound	activity change, negative = growth inhibition	Potency
CC1=C(C(=O)N2CCOCC2)CC(CC(=O)NC2CCCC2)C(=O)N1Cc1ccc(C(C)(C)C)cc1 (stereo not drawn)	–	inconclusive [inhibitor, single point]
COc1c(C)cc(Br)cc1C(=O)Nc1ccc(N2CCN(S(C)(=O)=O)CC2)cc1	inconclusive: -31.2% [inhibitor]	–
CCC(C)Sc1oc(-c2ccco2)nc1S(=O)(=O)c1ccc(Cl)cc1 (stereo not drawn)	–	active: 18.4 µM
CN(C)CC[n+]1ccc(C(=O)c2ccccc2)cc1	–	active: 4.11 µM
Cc1cccc(NC(=O)CN2CCN(C(=O)C3CCC3)CC2)c1C	inactive: -20.8%	–
COc1ccc(Nc2nnc(-c3ccc(C)c(S(=O)(=O)NCc4nc5ccccc5[nH]4)c3)c3ccccc23)cc1	–	active: 20.6 µM
O=C(CCCn1nnc(-c2cccnc2)n1)c1ccc(F)cc1	–	inconclusive [inhibitor, partial curve, poor fit]
CSc1nnnn1-c1ccc(Cl)cc1	inactive: 7.67%	–
O=C(NCc1ccc(Cl)cc1)c1ccc2c(c1)NC(=O)C(CS(=O)(=O)Cc1ccc(F)cc1Cl)N2 (stereo not drawn)	–	inconclusive [inhibitor, partial curve]
CCc1nc2c(OCc3ccc(Cl)cc3)cccn2c1N(C)C(=O)c1ccc(C)cc1	–	active: 18.4 µM
N#Cc1c(N2CCOCC2)nc(-c2ccco2)c2c1CCCC2	–	inconclusive [inhibitor, single point]
COc1cccc(N(C(=O)c2snc(C(N)=O)c2N)C(C(=O)NCC2CCCO2)c2ccc(F)cc2)c1 (stereo not drawn)	–	inconclusive [inhibitor, single point]
COc1ccc(NC(=O)c2cc(-c3ccccn3)nc3ccccc23)cc1S(=O)(=O)N(C)C	–	inconclusive [inhibitor, single point]
CCOc1ccc(-n2c(=O)cc(N3CCN(c4ccccc4)CC3)[nH]c2=O)cc1	inconclusive: -38.2% [inhibitor]	–
C/C(=N\NC(=O)c1cc(C(C)(C)C)[nH]n1)C12CC3CC(CC(C3)C1)C2	–	inconclusive [inhibitor, single point]
Cc1cnc(NC(=O)CSc2nnc(Cc3ccccc3)n2C)s1	inactive: -0.429%	–
Cc1ccc(NC(=S)C2=C(O)c3sccc3N(C)S2(=O)=O)cc1	–	inconclusive [inhibitor, single point]
Cc1[nH]ccc2cc3nc4ccccc4c3cc12	–	active: 5.17 µM
C=CCn1c(=N)n(CC(=O)OC)c2ccccc21	inactive: 1.84%	–
O=C(COCC(=O)Nc1cccc(C(F)(F)F)c1)Nc1cccc(C(F)(F)F)c1	–	inconclusive [inhibitor, single point]
COc1ccc(C)cc1NC(=O)c1cc2ccccn2n1	inactive: -24.8%	–
CC(C)CCNC(=O)c1onc(CSc2ccc(F)cc2)c1C(=O)NCCC(C)C	–	inconclusive [inhibitor, single point]
COC(=O)C1=CO[C@@H](O[C@@H]2O[C@H](CO)[C@@H](O)[C@H](O)[C@H]2O)C2C1C=C[C@@]2(O)CO (stereo partly drawn)	–	inconclusive [inhibitor, partial curve, poor fit]
